B1: OR4K15 (parent)
chain: GUUAACGGUCAUAGGCCAUGGAAACUAGGAGCACCAUUUCGCUGCCAGUGAAGAAAUGAACAAAGAAAAUCUGGGCCAGGCAGGCAUCAAAAGAAAUAGUCUUGCGCUCAACCAGAAAGUCUGUAAUCAUUUUAAGGGUA

Read counts are not given, so values of variants with three or more changes are uncertain.

Variants of B1 are the subject of the series. The series is described as follows: self-cleavage, relative activity (ratio to wild type); higher = more cleavage; in vitro, sequencing; the parent is a self-cleaving ribozyme.
On to A24C U70C A78G A114U, for which the self-cleavage came out at 0.03.
The value for A23G U87C U131C was 1.25; that for A24G A36G A55U U70C U102C A111G A140G was 0.02.
Regarding A24U U49C A126G, the self-cleavage is 1.11.
Next, A24G A33U U37C A66U U130C: 0.8.
Next, A24U U38A A118U: 0.4.
Next, A24C U38C A60G: 1.27; A23U A69G U87C A95G U108A: 0.03.
Take A24U A92G G106A A125G: the self-cleavage came out at 0.01.
In the case of A24G A55G A60G, the self-cleavage came out at 0.86.
For A24U A27G C71A A95G U132C, the self-cleavage was found to be 0.51.
The value for A24G U57A U70A A114G G137A was 0.15; that for A24G A64G A86G was 0.87.
The value for A24G A78G U87C U127A was 0.43.
The value for A24G U49G A89G A114U A117G was 0.03; that for A23U A64U U103C was 0.71.
As to C25U U26C A78G U102C U131C, the self-cleavage worked out at 0.24.
Next, A23U U57A A90G: 1.3; A24G A78G A129G U130C: 0.29; A24U A82G C121A: 0.05.
As for A24C A60U A69G A140G, the self-cleavage amounted to 1.92.
Next, A24G A98G A114G: 0.29.
The value for A24G U39A A78G U108C was 0.06.
Consider A23U U100A U131C, for which the self-cleavage came to 0.3.
For A23U A55G A89G A91G, the self-cleavage worked out at 1.06.
The value for A24C A33G A78G A98G was 0.08; that for A24G U70A A86G U97C was 0.83.
On to A24G A68G A114U U127A, for which the self-cleavage worked out at 0.07.
Next, A24G A51U A55G A98G A126G A135G G136A: 0.31.
In the case of A23U U37A A52U A60G A69U A98G, the self-cleavage worked out at 1.19.
The value for A24G U39A U57C U122C was 1.93; that for C25A A27G A82G A126U was 0.69; that for A24G A68G G137U was 1.33.
Next, U26A A56C G74A A90G U103C U122C A126G U127C: 0; A24G A94U U108C U127A: 0.01.
Next, A24G A30G A89G: 1.37; A24U U37C A96G U102C: 1.36.
On to A24G A30G U43C A62G U72C, for which the self-cleavage was 0.42.
The value for U26A U103C U132C was 1.03.
Turning to U26A A33U A47G, the self-cleavage was determined as 0.67.
Next, A23G U87C U122C: 0.59; A24U U49A A56U: 0.89; A24G A51G A90G A96G A116U: 0.22.
Next, A24U A66G U122C: 1.16; A24G U39C U72C U87A: 0.32; A24G A47U A90G U103C: 0.32.
The value for A24G A27U A66G G137A was 1.05; that for C25U A114U A126G U139C was 0.03.
Regarding A24C U43C A52G, the self-cleavage was determined as 0.88.
The value for A24U A54G A66U was 1.14; that for A23G U72C U103C G104U was 0.02; that for A24G A54G A67G U108C was 0.
The value for A24G A90G U130C was 1; that for A24G A55C A78U A86G A92G was 0.08.
Next, A24G A92G A129C: 0.6.
Regarding A24C U102A U108A, the self-cleavage turned out to be 0.
The value for A24C A55G A90G G123A was 0.49.
Next, A24G A64U U72C U108C: 0.04; A24G U26C A51G: 0.71.
The value for A24U A68G A116G U120C was 0.21; that for A24G A51G U133C was 0.7.
In the case of A24G G28U C76G A90U, the self-cleavage amounted to 0.13.
The value for A23U A60G A118G was 0.79; that for A24G A55G A91G A118G A140G was 0.5; that for A24G C32U U49C A64G was 0.86.
Turning to U26C A30G A33U, the self-cleavage was determined as 1.03.
Next, A24G A30G A54U A82G U100C U108C: 0.05; A24G U38C A47G A56G: 0.83; A24G A52G U72C: 0.35.
Next, A24G A27G G73A A90G: 0.15; A23U U43C A91G: 1.44.
Next, A24U A56G A78U: 0.13.
With A24G U57C C107U, the self-cleavage was 0.02.
The value for A24C U38C A62G U108C was 0.02; that for A24U A126G U130C was 0.75.
Next, A24G A33G A63G A111G: 0.05; A24U U49C A90G: 1.14; A24C A63G U130C: 1.92.
The value for A23U A64G A86U A117U was 1.02; that for A24C C34U U97C was 0.71; that for A24G U49C A111G A117C was 0.01.
Regarding A23U U70C G79A A94G, the self-cleavage is 0.13.
Turning to A24G U38C A51G A117U, the self-cleavage came to 0.99.
The value for U26A A54G A114G A117G was 0.44.
Next, A24G A54G U57A: 1.21; A24G A30U A82U A89C: 0.15; A24C A68G A118G: 0.98.
The value for U26A A36G A91G A117G U131C was 0.68.
Regarding A24G A33G A96G, the self-cleavage stood at 1.49.
Next, A24G A96G C105U: 0.33.
A24G C32G A47G: the self-cleavage stood at 0.79.
As to A24U U57A A116G, the self-cleavage stood at 0.22.
On to A24C G79A G83U, for which the self-cleavage stood at 0.24.
The value for A23U U122C U131C was 0.5; that for A23U C46U A62G U70C was 0.76; that for A23U A47U A91G was 0.67.
Regarding U26C A27G U43C A51U A54G, the self-cleavage came to 1.53.
Next, A23U A51C A117G: 1.19.
The value for A24G U102G A134G was 0.22; that for A24U U87C A95G U108C A135G was 0; that for A24C A30G U122C was 1.18.
As to A24G A59G U127C, the self-cleavage was found to be 1.16.
Next, A24U A91G C121U: 1.89; A24U C77U G84A: 1.84; A24U A36C U37A U97C U103A A118G: 0.37.
As for A24C U100C A116G, the self-cleavage was 1.79.
Next, A24G A51G U70C: 0.72.
Next, U26A A33G A51G G104A A116U A117G: 0.01; A24G A67G A92G G123A: 0.34; A24G U49C A62G A91G: 0.94.
The value for U26A A82U A110U was 0.06; that for A23U A24G A51G A92G A114G was 0.24; that for A24C A68G A89G A95G A129G was 1.64.
For the variant A24G G115A A135G, the self-cleavage stood at 0.22.
The value for A24U C34U U57C U70C A126G U130C A140G was 0.2; that for A24G A89C U127C was 0.53; that for A24G U39A U70A A82U A92G was 0.14.
Next, A24U A67G A91G: 1.23.
Next, A23U A51C U87A U97A: 1.58.
In the case of A24G A47U A129C, the self-cleavage was 0.6.
Next, A24U G48U A67G A86G A90U A111G: 0.02; A23U U72C U97A A117G: 0.29.
Next, A24G A82U U108C: 0.01; A24G U38C A62G A64G G79A A91U A126G A135G: 0.18.
Next, A24G G53A A55G A59G A69G U127A: 0.9.
For the variant A24C A47G A94G A118G U120C G137U, the self-cleavage was found to be 0.14.
The value for A23U A68G A117G was 2.48; that for A24G A78G U87C A91G was 0.07; that for A24G A27G A54G U120C was 0.73.
With A23U G104A A111U, the self-cleavage came to 0.04.
Take A24G A62G A68U: the self-cleavage came out at 1.35.
For the variant A24G U43C U97C U127A, the self-cleavage came out at 1.74.
Next, U26A A66G A134G: 1.2.
The value for C25U A52G A60U U108C was 0.
Next, A24G A62G U103C U122C U130C: 0.39; A23U A68G U70A: 1.09.
Regarding A24G A27C A36G U39C, the self-cleavage came to 0.78.
The value for A24G A33G U49C A90G U100A was 0.24; that for U26A A51U U108A was 0; that for A23U A96G A114G was 0.07.
For the variant A24C A30G U38C A54C A95G U127C, the self-cleavage stood at 1.49.
The value for A24G C40A A118G U122C was 0.95.
Consider A24G A52G A59G A110G, for which the self-cleavage is 0.15.
As for A24G A110U U127G, the self-cleavage amounted to 0.92.
Regarding A24G G74A A91U, the self-cleavage came out at 0.23.
In the case of A23G U108C A118U, the self-cleavage stood at 0.01.
Next, A24G A60G G79A: 0.11.
The value for A24G A56G A134U was 0.64.
As for A24G U39A A68C A126G, the self-cleavage is 1.16.
Next, A24G A67G A78U A89U A140G: 0.55; A24G A30G U108C: 0.07; A23G U102C A140G: 0.88.
For A24G A90U U102C U122C, the self-cleavage came out at 0.94.
Next, A24G U26C A27G U39A A67G: 0.94; A24U A89U U103C U108A: 0.01.
Turning to A23U A54G A68G U122C, the self-cleavage came out at 0.34.
In the case of A24G A27G A129U, the self-cleavage turned out to be 0.66.
Next, A24G A117G U130G: 0.91; A23G U87C A117G U132C: 0.72; A24G A56G A63G C81U: 0.37.
The value for U26A A47G A68G A69G U87C was 0.18; that for A23U U72C A94G was 0.32; that for A24G A59G U87C A126G was 0.58.
On to A24U A60G A78G U102C U131C, for which the self-cleavage worked out at 0.22.
Next, C25A A59U U72G U108A A114U: 0.02; A24C A60U U120C A126G: 1.12; A24G A60U A92G: 1.09.
